# Results published in PubChem BioAssay AID1346428 (National Center for Advancing Translational Sciences (NCATS), 2018).
# Hit rate of the full screen: of about 48,000 compounds, about 1,200 (2.5%) were called active. Another 2% or so got no clear call; they are omitted.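 The calls were made as follows: active = activation of at least 60% and not above a set upper limit (about 1 call in 100 departs from these limits); inconclusive = activation of 40% to 60%, or above that upper limit; inactive = activation under 40%.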 The list shows a part of the results.
# Target: Probable G-protein coupled receptor 32 (Homo sapiens) (UniProt O75388)
# Assay: qHTS for Agonists of Human Resolvin D1 Receptor DRV1; also: 0% is about no effect
# Settings: CHO-K1 GPR32 beta-arrestin PathHunter luminescence, 90 min; at 76.9 µM; stronger effect = higher value; zero percent set by DMSO-only wells
# Procedure, shortened: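 Cells are plated overnight, treated with compounds in DMSO for 90 minutes at 37 °C, and developed with PathHunter detection reagent for 1 hour before luminescence is read; signal reflects beta-arrestin binding to GPR32 in engineered CHO-K1 cells.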
# Chain of UniProt O75388 (O75388 whole entry, looked up): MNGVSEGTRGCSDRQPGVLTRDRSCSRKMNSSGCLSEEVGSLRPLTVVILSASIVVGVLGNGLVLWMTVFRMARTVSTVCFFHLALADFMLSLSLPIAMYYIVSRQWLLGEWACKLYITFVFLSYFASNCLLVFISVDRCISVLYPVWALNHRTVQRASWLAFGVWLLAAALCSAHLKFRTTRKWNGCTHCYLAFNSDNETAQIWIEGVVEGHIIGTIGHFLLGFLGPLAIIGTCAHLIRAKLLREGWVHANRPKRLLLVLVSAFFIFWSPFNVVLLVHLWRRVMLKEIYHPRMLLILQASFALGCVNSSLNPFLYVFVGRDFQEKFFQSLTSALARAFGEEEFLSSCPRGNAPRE
row,Compound,activation
1,CCOc1ccc2oc(=O)cc(CN3CCN(C(=O)c4ccc(F)cc4)CC3)c2c1,inactive: -15.3%
2,CCNC(=O)CC1C(=O)N(c2cccc(OC)c2)C(=O)N1Cc1ccc(OC)c(OC)c1 (configuration not stated),inactive: -1.87%
3,CS(=O)(=O)N1CCC(N2CCN(Cc3ccccc3)C(=O)C2=O)CC1,inactive: -4.97%
4,CCc1ccc(-c2nc(CS(=O)CC(=O)NCCc3ccc(Cl)cc3)c(C)o2)cc1 (configuration not stated),inactive: -18.7%
5,O=C1CCSC2(C(=O)N(Cc3ccc(F)cc3)c3ccccc32)N1c1ccc(F)c(F)c1 (configuration not stated),inactive: -0.912%
6,O=S(=O)(Nc1cccc(-c2ccc(N3CCCCCC3)nn2)c1)c1cccc(F)c1,inactive: -16.5%
7,CCOc1ccccc1N(CC(=O)N1CCc2ccccc2C1)S(=O)(=O)c1ccccc1,inactive: -15.3%
8,Cc1nc2ncnn2c(C)c1CCC(=O)NCc1ccccc1Cl,inactive: 5.6%
9,COc1cccc(NC(=O)Cn2c(=O)n(-c3ccc(C)cc3)c(=O)c3ccc(C(=O)NCc4ccco4)cc32)c1,inactive: -12.7%
10,Cc1c(C(=O)Nc2cccc(Cl)c2)oc2ccc(S(=O)(=O)N(C)C3CCCCC3)cc12,inactive: -10.2%
11,CCC(Sc1nncn2c1cc1oc(C)cc12)C(=O)Nc1ccc(F)cc1 (configuration not stated),inactive: -21.9%
12,CCc1cccc(NC(=O)C(c2ccccc2)N2Cc3ccccc3C2=O)c1 (configuration not stated),inactive: -27.6%
13,COc1cc(C)c(C)cc1S(=O)(=O)Nc1cccc(-c2ccc(N3CCOCC3)nn2)c1,inactive: -2.01%
14,CCOCc1ccccc1Nc1ncnc2onc(-c3ccc(Cl)cc3)c12,inactive: -0.585%
15,COc1ccccc1OCC(O)CO (configuration not stated),inactive: 8.89%
16,COc1ccc(CCNC(=O)C(=O)NCC(c2ccco2)S(=O)(=O)c2ccc(F)cc2)cc1 (configuration not stated),inactive: 19.1%
17,COCCn1c(=N)c(C(=O)NC(C)c2ccccc2)cc2c(=O)n3cc(C)ccc3nc21 (configuration not stated),inactive: -7.33%
18,O=C(NCCc1nc2ccccc2n1Cc1ccc(F)cc1)c1ccco1,inactive: -5.84%
19,COc1ccc(CNC(=O)c2ccc(CS(=O)(=O)c3ccccc3OC)o2)cc1,inactive: -4.95%
20,CCOc1ccc(CCNC(=O)Cn2nc(-c3ccc(C)cc3)ccc2=O)cc1OCC,inactive: -22.9%
21,CCN(CC)S(=O)(=O)c1ccc2c(c1)N(CC(=O)N1CCN(c3ccc(F)cc3)CC1)C(=O)CO2,inactive: -31.2%

row,Compound,activation
1,COc1cc(CN2CCN(S(=O)(=O)c3ccccc3)CC2)cc(OC)c1O,inactive: 13.9%
2,CCc1ccccc1NC(=O)C1=C(C)C(=O)OC12CCCCCC2,inactive: 0.79%
3,O=C(CNS(=O)(=O)c1cccs1)N1CCN(c2cccc(C(F)(F)F)c2)CC1,inactive: 8.56%
4,Cc1cccc(NC(=O)C(=O)NCC(c2ccc3c(c2)OCO3)N2CCN(C)CC2)c1C (configuration not stated),inactive: 13.9%
5,COc1ccc(CNC(=O)c2cc3c(=O)oc4ccc(C)cc4c3s2)c(OC)c1,inactive: -1.35%
6,COc1ccc(OC)c(NC(=O)c2cccn2-c2nnc(N3CCCCC3)s2)c1,inactive: -23.8%
7,COc1cc(NC(=O)CSc2ncc(S(=O)(=O)c3ccc(Br)cc3)c(=O)[nH]2)cc(OC)c1,inactive: -9.9%
8,Cc1c2cnn(CC(=O)NCCc3ccccc3)c(=O)c2c(C)n1Cc1ccccc1,inactive: -14.1%
9,CC[C@]1(O)C[C@H]2CN(CCc3c([nH]c4ccccc34)[C@@](C(=O)OC)(c3cc4c(cc3OC)N(C=O)[C@H]3[C@@](O)(C(=O)OC)[C@H](OC(C)=O)[C@]5(CC)C=CCN6CC[C@]43[C@@H]65)C2)C1,inactive: -6.89%
10,Fc1ccc(-c2noc3ncnc(NC4CCCCC4)c23)cc1,inactive: -10.6%
11,Cc1cccc(N2CCN(C(=O)CCCCn3c(=O)[nH]c4ccsc4c3=O)CC2)c1C,active: 61.7%
12,COc1ccc(Cn2c(=O)c3oc4ccccc4c3n(Cc3ccc(F)cc3)c2=O)cc1,inactive: -6.94%
13,COc1cc(C2CC(=O)Nc3cc4c(cc32)OCCO4)cc(Br)c1OC (configuration not stated),inactive: -5.01%
14,Cc1cc(Nc2cccc(Cl)c2)nc2ccc(NC(=O)Cc3cccc(C(F)(F)F)c3)cc12,inactive: 6.12%
15,CCCCOc1cccc(C(=O)N(Cc2sccc2C)C2CCS(=O)(=O)C2)c1 (configuration not stated),inactive: -25.8%
16,CCN(CC)S(=O)(=O)c1ccc2oc(C(=O)N(C)Cc3ccccc3)c(C)c2c1,inactive: 0.169%
17,COc1ccc(CNC(=O)c2ccc(NC(=O)N3CCCCc4ccccc43)cc2)cc1,inactive: 6.85%
18,CC(=O)[C@H]1CC[C@H]2[C@@H]3C=CC4=CC(=O)CC[C@@]4(C)[C@@H]3CC[C@]12C,inactive: 7.22%
19,Cc1ccc(C)c(CN2C(=O)c3ccccc3S(=O)(=O)c3ccc(C(=O)N4CCCCC4)cc32)c1,inactive: -21.4%
20,COc1cc(NC(=O)c2cc(S(=O)(=O)N3CCc4ccccc43)cn2C)cc(OC)c1OC,inactive: -8.78%
21,CC(C)n1c(=N)c(C(=O)NCc2ccccc2)cc2c(=O)n3ccccc3nc21,inactive: -8.21%

row,Compound,activation
1,CCc1ccccc1N(C)C(=O)c1cc2c(=O)oc3ccccc3c2s1,inactive: 14.5%
2,CC(=O)c1cccc(NC(=O)c2noc3c2CCCC3)c1,inactive: 5.53%
3,CC(C)CC(=O)Nc1c(C(=O)N2CCN(c3ccccc3)CC2)oc2ccccc12,inactive: -24.3%
4,O=C(C1CCC1)N1CCc2cc(S(=O)(=O)NCc3ccc(F)cc3)ccc21,inactive: -2.22%
5,COc1ccc(C)cc1NC(=O)N1CCCn2nc(C)cc21,inactive: -5.4%
6,O=C(COc1ccccc1[N+](=O)[O-])N(Cc1ccco1)c1ccccn1,inactive: 12.8%
7,COc1cc2c(=O)n(CCc3ccccc3)c(=O)n(CC(=O)Nc3ccccc3)c2cc1OC,inactive: 3.14%
8,COc1ccc(OC)c(NC(=O)/C=C/c2ccc(C)o2)c1,inactive: 30.2%
9,CCOc1ccccc1NC(=O)Cn1c(=O)n(-c2cccc(C)c2)c(=O)c2c1c1cc(OC)ccc1n2C,inactive: -7.76%
10,COC(=O)c1ccccc1NC(=O)N1CCc2c(sc3c2CCCC3)C1c1ccc(F)cc1 (configuration not stated),inactive: -0.103%
11,O=C(COc1ccccc1)NC1CC(=O)N(c2ccc3c(c2)OCCO3)C1 (configuration not stated),inactive: -1.29%
12,COc1ccc(C(=O)Cn2c(=O)c(-c3cc(C)ccc3NC(C)=O)nc3ccccc32)cc1,inactive: -3.91%
13,CC(=O)c1cc2c(cc1N/C(=N/S(=O)(=O)c1ccc(Br)cc1)c1ccccc1)OCO2,inactive: -33.3%
14,O=C(Cn1c(=O)n(CC2CCC(C(=O)NCCc3ccccc3)CC2)c(=O)c2ccccc21)Nc1cccc(F)c1 (configuration not stated),inactive: 20.3%
15,Cc1ccccc1Cn1c(CN2CCCC(C)C2)nc2c1c(=O)n(C)c(=O)n2C (configuration not stated),inactive: 1.24%
16,Cc1ccc(C)c(N2CCN(C(=O)c3noc4c3CCCCC4)CC2)c1,inactive: -28.5%
17,CCOc1ccc(C(=O)c2cn(CC(=O)Nc3ccc(Cl)cc3)c3cc4c(cc3c2=O)OCCO4)cc1,inactive: 18%
18,CCc1cccc(C)c1NC(=O)c1cccc(C(=O)Nc2c(C)cccc2CC)c1,inactive: -6.13%
19,CCC(C)NC(=O)CCc1c(C)nc2nc(-c3cc(OC)cc(OC)c3)nn2c1C (configuration not stated),inactive: -4.82%
20,Cc1ccc(NC(=O)[C@@H](c2ccccc2)N2Cc3ccccc3C2=O)cc1,inactive: -29.5%
21,COC(=O)c1cc2oc3ccccc3c2n1Cc1nc(-c2ccccc2C)oc1C,inactive: -18.4%

row,Compound,activation
1,O=C(CSCc1cc(=O)c2cc(F)ccc2[nH]1)Nc1ccccc1Cl,inactive: 22.1%
2,Cc1cccc(N2CCN(S(=O)(=O)c3cc(C(=O)Nc4ccccc4Cl)ccc3F)CC2)c1C,inactive: -11.2%
3,CCc1ccccc1NC(=O)CSc1nnc2ccc3ccccc3n12,inactive: -9.72%
4,COc1ccc(OC)c(CCNc2nc3ccccc3c3nc(-c4cccnc4)nn23)c1,inactive: -28.4%
5,Brc1ccc(-n2nc(-c3ccccc3)c3cnc4cc5c(cc4c32)OCO5)cc1,inactive: -1.21%
6,Cc1ccc2[nH]c(CSc3nnc(NC(=O)c4ccc(Cl)cc4)s3)cc(=O)c2c1,inactive: 18.7%
7,Cc1cc(=O)[nH]c(=S)[nH]1,inactive: 21.9%
8,Cc1cc(S(=O)(=O)C(CNC(=O)COc2ccc(Cl)cc2)c2cccs2)ccc1F (configuration not stated),inactive: 16.5%
9,CCCN(CCC)C(=O)c1c2c(nc3ccccc13)C(=O)N(C1CCCCC1)C2,inactive: -12%
10,Cc1ccc(CCNC(=O)C2CCN(Cc3nc(-c4ccccc4C)oc3C)CC2)cc1,inactive: 34.9%
11,CCc1ccc(OCC2c3cc(OC)c(OC)cc3CCN2C(=O)COc2ccccc2)cc1 (configuration not stated),inactive: -20.9%
12,CCCN(C(=O)c1coc(=O)c2ccccc12)c1ccccc1C,inactive: 20.9%
13,Cc1ccc(N2C(=O)CSC23C(=O)N(CC(=O)Nc2ccc(C(C)C)cc2)c2ccccc23)cc1C (configuration not stated),inactive: 21.6%
14,CCOc1ccc(CCNC(=O)c2cc3c(-c4ccc(OC)c(OC)c4)nn(C)c3s2)cc1OCC,inactive: -2.39%
15,CCn1c(=O)cc(OCC(=O)Nc2cc(Cl)c(OC)cc2OC)c2ccccc21,inactive: 7.81%
16,CCOc1ccc(NC(=O)Cn2cc(C(=O)c3ccco3)c3ccccc32)cc1,inactive: -14.6%
17,Cc1coc2cc3oc(=O)c(CC(=O)NCCc4ccccc4)c(C)c3cc12,inactive: -13.7%
18,COc1cccc(NC(=O)C(Cc2ccccc2)NS(=O)(=O)c2ccc3c(c2)oc(=O)n3C)c1 (configuration not stated),inactive: -2.07%
19,COc1ccc(-n2nc(C(=O)Nc3cccc(C)n3)c3c4ccccc4n(C)c3c2=O)cc1Cl,inactive: 6.33%
